Reference: PubChem BioAssay (NCI)
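Results reflect a 48-hour exposure of cells in 96-well plates to compound at five concentrations. GI50 = concentration required for 50% inhibition of growth. TGI marks complete inhibition of growth.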

Tested on: NCI-H322M lung
Experiment: inhibition of tumour cell growth, NCI panel, 48 h

Row | Structure (SMILES) | TGI [µM] | GI50 [µM]
1 | COc1ccc2oc(=N)c(C(=O)Nc3cccc4ccccc34)cc2c1 | > 100 | –
2 | Cc1[nH]ncc1-c1cc2nc(C3CC4CCN3CC4)[nH]c(=O)c2s1 (stereo not given) | > 100 | 3.61
3 | O=C1c2ccccc2C2(O)Nc3cc(O)ccc3C12O (stereo not given) | > 100 | –
4 | O=P([O-])(O)OP(=O)([O-])O.[NH-][C@H]1CCCC[C@@H]1[NH-].[OH-].[OH-].[Pt+4] | 80.9 | 26.1
5 | c1ccc(C2=NC3(CCCCC3)N(c3nc4ccccc4s3)N2)nc1 | > 100 | –
6 | OCC1OC(c2scc3c(=S)nc[nH]c23)C(O)C1O (stereo not given) | > 100 | –
7 | COC(=O)c1c2c(cc3c1CC1(Cc4ccccc4C1=O)C3)CCC2 (stereo not given) | 92 | –
8 | Nc1ncnc2c1ncn2C1OC(COP(=O)(O)CP(=O)(O)O)C(O)C1O (stereo not given) | > 100 | –
9 | COC(=O)c1cn(CCCC(=O)O)nn1 | > 100 | –
10 | O=C(c1ccc2ccccc2c1O)N1CCCCC1 | > 100 | –
11 | CCC(C)CN1C(=O)NC(C)(Cc2ccccc2)C1=O (stereo not given) | > 100 | –
12 | COc1cc(-c2nn3c(/C=C4/C(=O)Nc5ccccc54)c(-c4ccc(C)cc4)nc3s2)cc(OC)c1OC | > 100 | 10.3
